From PubChem BioAssay (NCI)
Values joined by “and” are separate entries in the source; they are usually repeats but may differ in a detail not shown here. Identical values can stand only once.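 Where inhibition never reached the appropriate level, the endpoint shown equals the highest concentration tested. Otherwise, values were interpolated linearly from a five-concentration, 48-hour dose response in 96-well plates. Abbreviation: GI50, concentration required for 50% inhibition of growth. Definition used: TGI = concentration required for complete inhibition of growth.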

test system: NCI-H322M lung; assay: NCI-60 cell line screen, 48 h

| Compound | TGI | GI50 |
| --- | --- | --- |
| O=C(O)CCc1nc(-c2ccccc2)c(-c2ccccc2)o1 | > 100 µM | – |
| CC(=O)NNc1nc(C)c(C(/C=C/c2ccc(Cl)cc2)=N/NC(=S)NN)s1 | > 100 µM | – |
| O=C(Nc1cc([N+](=O)[O-])cc([N+](=O)[O-])c1)OC1C2CCC1C1OC1C2 (stereo not drawn) | > 50 µM | – |
| Cc1cc2nc(NS(=O)(=O)c3cc(C)c(Cl)cc3S)[nH]c2cc1C | > 100 µM | – |
| O/N=C1/C(=C/c2ccc(Cl)cc2)CCCC1C(NO)c1ccc(Cl)cc1 (stereo not drawn) | 29.9 µM | – |
| COc1ccc(-c2cc(-c3ccc(Nc4ccnc5cc(C(F)(F)F)ccc45)cc3)[nH]c(=O)c2C#N)cc1 | > 100 µM | – |
| O=C1/C(=C/c2ccc(C(F)(F)F)cc2)COc2ccc(O)cc21 | 25 µM | 12.5 µM |
| C=C(C)C1CCC2(CO)C(O)CC3(C)C(CCC4C5(C)CCC(O)C(C)(C)C5CCC43C)C12 (stereo not drawn) | 30.7 µM | – |
| Cc1cc(NS(=O)(=O)c2ccc(NC(=O)c3cccc4c(NNc5ccc(S(N)(=O)=O)cc5)c5ccccc5nc34)cc2)no1 | > 100 µM | – |
| NC(N)=N/N=C(/c1ccccc1)c1ccc(O)cc1O | > 100 µM | – |
| CCN1CCN(c2cc(C)nc(NCc3cc(Nc4ccnc5cc(Cl)ccc45)ccc3F)n2)CC1 | > 100 µM | 3 µM |
| O=C(O)C1Cc2ccccc2OC1=O (stereo not drawn) | > 100 µM | – |
| COC(=O)C[C@](O)(CCC(C)(C)O)C(=O)O[C@@H]1C(OC)=C[C@]23CCCN2CCc2cc4c(cc2[C@H]13)OCO4 | 1.55 µM | – |
| C/C(CC(=O)Nc1ccc(NC(=O)/C(C)=N/NS(=O)(=O)c2ccc(C)cc2)cc1)=N\NS(=O)(=O)c1ccc(C)cc1 | > 100 µM | – |
| COc1ccc2c(c1)-c1c(c3ccccc3n1CCN1CCOCC1)CC2 | > 100 µM | – |
| O=c1[nH]c2cc([N+](=O)[O-])c(N(CCO)CCO)c([N+](=O)[O-])c2[nH]1 | > 100 µM | – |
| O=C1/C(=C\c2cn(CC(O)CN3CCCCC3)c3ccccc23)c2ccccc2N1c1c(Cl)cccc1Cl (stereo not drawn) | 3.34 µM | 1.63 µM |
| COc1ccc(NCc2c(O)ccc3ccccc23)cc1 | > 100 µM | – |
| O=C(O)[C@H]1NC[C@@H]2ON=C(Br)[C@@H]21 | > 100 µM | – |
| CCN1CCN(c2nc(C)cc(N(CCCNc3ccnc4cc(Cl)ccc34)Cc3ccco3)n2)CC1 | 10.4 µM | 2.76 µM |
| CCOC(=O)CCc1c(C)c2c(O)cc(O)cc2oc1=O | > 100 µM | – |
| O=C(Nn1c2c(sc1=NC1CC1)C(=O)c1ccccc1C2=O)c1cc2ccc1CCc1ccc(cc1)CC2 | 5.13 µM | 1.93 µM |
| COc1cccc2cc(N(C)c3nc(C)nc4ccsc34)ccc12 | 23.6 µM | < 0.01 µM |

| Compound | TGI | GI50 |
| --- | --- | --- |
| COC(=O)NN=C1C(C)(C)C(=NNC(=O)OC)C1(C)C | > 100 µM | – |
| CC(=O)[CH-]C(=O)c1ccccc1.CC(=O)[CH-]C(=O)c1ccccc1.CC[O-].O=C1C=C([O-])C(=O)c2ccccc21.[Ti+4] | > 100 µM | > 100 µM |
| CC(C)=CCC[C@@H](C)C1=C(O)C(Nc2ccccc2F)=C(C)C(=O)C1=O | > 100 µM | – |
| CN(c1ccccc1Cl)S(=O)(=O)c1ccccc1 | > 100 µM | – |
| COc1cc(OC)c(NC2=NCCO2)cc1Cl | > 100 µM | – |
| O=C(OCc1c(-c2ccccc2)nn(-c2ccccc2)c1COC(=O)Oc1ccccc1)Oc1ccccc1 | > 100 µM | – |
| COc1ccc2c(c1)Cc1c-2[nH]c2cc3c(cc2c1=O)OCO3 | > 100 µM | – |
| Cc1cc(Cl)ccc1Nc1nc(C(F)(F)F)ccc1C(=O)N/N=C/c1ccc(N(C)C)cc1 | > 100 µM | 0.998 µM |
| O=C(Nc1ccc(Cl)cc1)c1cc(S(=O)(=O)NC2=NC(c3ccccc3)c3cc(Cl)ccc3N2)c(SSc2cc(Cl)c(C(=O)Nc3ccc(Cl)cc3)cc2S(=O)(=O)NC2=NC(c3ccccc3)c3cc(Cl)ccc3N2)cc1Cl (stereo not drawn) | > 100 µM | – |
| COc1ccc(-c2cc3nccn3c(Nc3ncccc3C(N)=O)n2)cc1OC | > 100 µM | 1.01 µM |
| CCCCc1oc2ccccc2c1C(=O)c1cc(I)c(OCCN(CC)CC)c(I)c1 | 15 µM and 10.1 µM | 3.96 µM |
| NC(=O)C12CCC1C1CCCCC12N1CCOCC1 (stereo not drawn) | > 100 µM | – |
| COc1cc(C2c3cc4c(cc3[C@@H](Nc3ccc(N5CCOCC5)cc3)C3COC(=O)[C@H]23)OCO4)cc(OC)c1O (stereo partly drawn) | 36.4 µM | – |
| CCC(C)N1CN(c2ccccc2)C2(CCN(CCCC(=O)c3ccc(F)cc3)CC2)C1=O (stereo not drawn) | 18 µM | – |
| CC(C)(CO)NC(=O)c1cccc(C(=O)NC(C)(C)CO)c1Br | > 100 µM | – |
| CN1CCN(c2ccc([N+](=O)[O-])c3no[n+]([O-])c23)CC1 | 4.4 µM and 1.98 µM | 0.685 µM |
| CC(=N\N=C\c1ccccn1)/C(C)=N/N=C/c1ccccn1 | > 100 µM | – |
| CO[C@H]1/C=C/C[C@H](C)[C@@H](C)S(=O)(=O)NC(=O)c2ccc3c(c2)N(C[C@@H]2CC[C@H]21)C[C@@]1(CCCc2cc(Cl)ccc21)CO3 | 13.3 µM | 3.2 µM |
| CCCCCCCCCCCCCCCCCCOCC1(COP(=O)([O-])OCC[N+](C)(C)C)CCCO1 (stereo not drawn) | 26.2 µM | – |
| O=C(O)c1ccc(/C=N\N(CCO)C2=NCCN2)cc1 | > 100 µM | – |
| c1cc(-c2cnn3nc(N4CCOCC4)ccc23)nc(NC2CC2)n1 | > 25 µM | 10.7 µM |
| CCOC(=O)/C(=C\NC#N)c1nc2ccccc2[nH]1 | > 100 µM | – |
